The list shows a part of the results. Cut-off read from the data, not from the text of the source: active = 3.2 or more and inactive = the rest. Most of these values are background signal.
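Note: displayed peptides selected on beads carrying the immobilized SH2 domain, with library peptides lacking any tyrosine serving as negative controls.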

In the first test the target is SHP2 C-SH2 domain E139D. Nature of the test: enrichment score (SH2-bound / input frequency) (ratio); bacterial display of known human phosphotyrosine sites (pTyr-Var adds point mutants) read by sequencing; higher = stronger binding; tyrosines were phosphorylated by kinases first. Particulars: peptide library: pTyr-Var.
In the case of RPYRPYIIRGM [LRP5_Y1531], the enrichment score is inactive: 0.373.

With WFKKFYDANFD [MAPRE2_Y158_YF], the enrichment score was inactive: 0.8.

As to PPAPRYHHSAV [LZTR1_Y119], the enrichment score is inactive: 1.84.

TRFDEYLEVTK [MAP1A_Y2217_H2214Y_YF]: the enrichment score was inactive: 0.831.

Regarding HFECKYVINAI [MAOA_Y268_YF], the enrichment score is inactive: 1.08.

For PVADRYDQSFE [MAPK14_Y323_P322R], the enrichment score is inactive: 0.484.

LVTRSYLLGNS [LMNA_Y646]: the enrichment score was inactive: 0.696.

Regarding DPLLTYQFPPK [LMNA_Y481_R482Q], the enrichment score is inactive: 0.742.

Take ACVARYIFKRL [LPCAT3_Y348_W344C]: the enrichment score is inactive: 0.828.

With VAMDDYLKNVV [LRRK2_Y707_M712V], the enrichment score is inactive: 0.888.

As for RRKRAYVEIEF [MAK16_Y282_Q277R_YF], the enrichment score was inactive: 0.369.

For RGLQVYHRRNA [LRP2_Y2010], the enrichment score was inactive: 0.352.

As to FGISGYVVDSV [MAP2K3_Y214_L215V], the enrichment score is inactive: 1.24.

Take CTLNVYRQLHN [LUZP1_Y1036_S1034N]: the enrichment score is inactive: 0.874.

For IYRASYYRRGD [LTK_Y676], the enrichment score was inactive: 0.236.

FYDANCDGKEY [MAPRE2_Y162_Y162C]: the enrichment score is inactive: 0.874.

As to LAETSYVIVLE [MAGEA1_Y276_K278I], the enrichment score is inactive: 0.924.

Take DPLLTHRFPPK [LMNA_Y481_Y481H]: the enrichment score is inactive: 0.698.

On to FFDANYDGKEF [MAPRE2_Y162_YF], for which the enrichment score was inactive: 0.886.

For another test, the target named is SHP2 C-SH2 domain wild-type. Described as above. Particulars: peptide library: pTyr-Var.
Turning to RPYRPYIIRGM [LRP5_Y1531], the enrichment score is inactive: 0.339.

In the case of WFKKFYDANFD [MAPRE2_Y158_YF], the enrichment score was inactive: 0.714.

Consider PPAPRYHHSAV [LZTR1_Y119], for which the enrichment score was inactive: 2.05.

With TRFDEYLEVTK [MAP1A_Y2217_H2214Y_YF], the enrichment score is inactive: 0.65.

Regarding HFECKYVINAI [MAOA_Y268_YF], the enrichment score was inactive: 1.58.

PVADRYDQSFE [MAPK14_Y323_P322R]: the enrichment score was inactive: 0.542.

As to LVTRSYLLGNS [LMNA_Y646], the enrichment score was inactive: 0.765.

In the case of DPLLTYQFPPK [LMNA_Y481_R482Q], the enrichment score is inactive: 0.592.

Regarding ACVARYIFKRL [LPCAT3_Y348_W344C], the enrichment score is inactive: 0.791.

On to VAMDDYLKNVV [LRRK2_Y707_M712V], for which the enrichment score was inactive: 0.874.

Regarding RRKRAYVEIEF [MAK16_Y282_Q277R_YF], the enrichment score was inactive: 0.199.

As for RGLQVYHRRNA [LRP2_Y2010], the enrichment score is inactive: 0.295.

Take FGISGYVVDSV [MAP2K3_Y214_L215V]: the enrichment score was inactive: 0.949.

For the molecule CTLNVYRQLHN [LUZP1_Y1036_S1034N], the enrichment score was inactive: 1.06.

As for IYRASYYRRGD [LTK_Y676], the enrichment score is inactive: 0.321.

Take FYDANCDGKEY [MAPRE2_Y162_Y162C]: the enrichment score is inactive: 0.762.

For the molecule LAETSYVIVLE [MAGEA1_Y276_K278I], the enrichment score is inactive: 1.94.

On to DPLLTHRFPPK [LMNA_Y481_Y481H], for which the enrichment score is inactive: 0.798.

As for FFDANYDGKEF [MAPRE2_Y162_YF], the enrichment score was inactive: 0.863.

A further test has as its target SHP2 N-SH2 domain L43F. Described as above. As to conditions: peptide library: pTyr-Var.
Regarding RPYRPYIIRGM [LRP5_Y1531], the enrichment score was inactive: 0.224.

As to WFKKFYDANFD [MAPRE2_Y158_YF], the enrichment score was inactive: 0.705.

As for PPAPRYHHSAV [LZTR1_Y119], the enrichment score is inactive: 2.

TRFDEYLEVTK [MAP1A_Y2217_H2214Y_YF]: the enrichment score is inactive: 0.65.

Regarding HFECKYVINAI [MAOA_Y268_YF], the enrichment score is inactive: 1.34.

For the molecule PVADRYDQSFE [MAPK14_Y323_P322R], the enrichment score is inactive: 0.454.

Turning to LVTRSYLLGNS [LMNA_Y646], the enrichment score was inactive: 0.714.

Turning to DPLLTYQFPPK [LMNA_Y481_R482Q], the enrichment score was inactive: 0.997.

For the molecule ACVARYIFKRL [LPCAT3_Y348_W344C], the enrichment score was inactive: 0.902.

For the molecule VAMDDYLKNVV [LRRK2_Y707_M712V], the enrichment score is inactive: 0.687.

In the case of RRKRAYVEIEF [MAK16_Y282_Q277R_YF], the enrichment score is inactive: 0.328.

As for RGLQVYHRRNA [LRP2_Y2010], the enrichment score is inactive: 0.239.

Take FGISGYVVDSV [MAP2K3_Y214_L215V]: the enrichment score is inactive: 1.19.

Consider CTLNVYRQLHN [LUZP1_Y1036_S1034N], for which the enrichment score is inactive: 0.749.

For the molecule IYRASYYRRGD [LTK_Y676], the enrichment score is inactive: 0.306.

Turning to FYDANCDGKEY [MAPRE2_Y162_Y162C], the enrichment score was inactive: 0.818.

As for LAETSYVIVLE [MAGEA1_Y276_K278I], the enrichment score is inactive: 1.1.

For the molecule DPLLTHRFPPK [LMNA_Y481_Y481H], the enrichment score was inactive: 0.694.

On to FFDANYDGKEF [MAPRE2_Y162_YF], for which the enrichment score is inactive: 0.876.

Another test has as its target SHP2 N-SH2 domain T42A. Described as above. As to conditions: peptide library: pTyr-Var.
As for RPYRPYIIRGM [LRP5_Y1531], the enrichment score is inactive: 0.215.

WFKKFYDANFD [MAPRE2_Y158_YF]: the enrichment score was inactive: 0.643.

PPAPRYHHSAV [LZTR1_Y119]: the enrichment score is inactive: 1.52.

In the case of TRFDEYLEVTK [MAP1A_Y2217_H2214Y_YF], the enrichment score was inactive: 0.709.

On to HFECKYVINAI [MAOA_Y268_YF], for which the enrichment score is inactive: 0.864.

For PVADRYDQSFE [MAPK14_Y323_P322R], the enrichment score is inactive: 0.487.

Take LVTRSYLLGNS [LMNA_Y646]: the enrichment score is inactive: 0.835.

Turning to DPLLTYQFPPK [LMNA_Y481_R482Q], the enrichment score was inactive: 0.636.

For the molecule ACVARYIFKRL [LPCAT3_Y348_W344C], the enrichment score was inactive: 0.884.

Take VAMDDYLKNVV [LRRK2_Y707_M712V]: the enrichment score is inactive: 0.714.

In the case of RRKRAYVEIEF [MAK16_Y282_Q277R_YF], the enrichment score is inactive: 0.248.

With RGLQVYHRRNA [LRP2_Y2010], the enrichment score is inactive: 0.272.

Consider FGISGYVVDSV [MAP2K3_Y214_L215V], for which the enrichment score was inactive: 1.29.

On to CTLNVYRQLHN [LUZP1_Y1036_S1034N], for which the enrichment score was inactive: 0.678.

Turning to IYRASYYRRGD [LTK_Y676], the enrichment score was inactive: 0.199.

Take FYDANCDGKEY [MAPRE2_Y162_Y162C]: the enrichment score is inactive: 0.492.

For the molecule LAETSYVIVLE [MAGEA1_Y276_K278I], the enrichment score was inactive: 1.7.

In the case of DPLLTHRFPPK [LMNA_Y481_Y481H], the enrichment score was inactive: 0.63.

On to FFDANYDGKEF [MAPRE2_Y162_YF], for which the enrichment score is inactive: 0.579.

For another test, the target named is SHP2 N-SH2 domain T52S. The description is as above. Particulars: peptide library: pTyr-Var.
Take RPYRPYIIRGM [LRP5_Y1531]: the enrichment score was inactive: 0.304.

Turning to WFKKFYDANFD [MAPRE2_Y158_YF], the enrichment score is inactive: 0.655.

Turning to PPAPRYHHSAV [LZTR1_Y119], the enrichment score was inactive: 1.71.

Turning to TRFDEYLEVTK [MAP1A_Y2217_H2214Y_YF], the enrichment score was inactive: 0.996.

With HFECKYVINAI [MAOA_Y268_YF], the enrichment score was inactive: 0.836.

In the case of PVADRYDQSFE [MAPK14_Y323_P322R], the enrichment score was inactive: 0.533.

Consider LVTRSYLLGNS [LMNA_Y646], for which the enrichment score was inactive: 0.838.

DPLLTYQFPPK [LMNA_Y481_R482Q]: the enrichment score was inactive: 0.777.

Turning to ACVARYIFKRL [LPCAT3_Y348_W344C], the enrichment score was inactive: 0.901.

Take VAMDDYLKNVV [LRRK2_Y707_M712V]: the enrichment score is inactive: 0.951.

Take RRKRAYVEIEF [MAK16_Y282_Q277R_YF]: the enrichment score was inactive: 0.261.

In the case of RGLQVYHRRNA [LRP2_Y2010], the enrichment score is inactive: 0.158.

With FGISGYVVDSV [MAP2K3_Y214_L215V], the enrichment score is inactive: 1.16.

For the molecule CTLNVYRQLHN [LUZP1_Y1036_S1034N], the enrichment score was inactive: 0.659.

As for IYRASYYRRGD [LTK_Y676], the enrichment score was inactive: 0.282.

In the case of FYDANCDGKEY [MAPRE2_Y162_Y162C], the enrichment score was inactive: 0.712.

Take LAETSYVIVLE [MAGEA1_Y276_K278I]: the enrichment score is inactive: 0.794.

Turning to DPLLTHRFPPK [LMNA_Y481_Y481H], the enrichment score is inactive: 0.598.

FFDANYDGKEF [MAPRE2_Y162_YF]: the enrichment score is inactive: 0.841.

The target in a further test is SHP2 N-SH2 domain wild-type. Described as above. As to conditions: peptide library: pTyr-Var.
As to RPYRPYIIRGM [LRP5_Y1531], the enrichment score is inactive: 0.186.

As to WFKKFYDANFD [MAPRE2_Y158_YF], the enrichment score is inactive: 0.896.

For the molecule PPAPRYHHSAV [LZTR1_Y119], the enrichment score is inactive: 2.06.

In the case of TRFDEYLEVTK [MAP1A_Y2217_H2214Y_YF], the enrichment score is inactive: 0.674.

For the molecule HFECKYVINAI [MAOA_Y268_YF], the enrichment score was inactive: 1.84.

For PVADRYDQSFE [MAPK14_Y323_P322R], the enrichment score was inactive: 0.668.

Turning to LVTRSYLLGNS [LMNA_Y646], the enrichment score is inactive: 0.695.

With DPLLTYQFPPK [LMNA_Y481_R482Q], the enrichment score was inactive: 0.814.

For ACVARYIFKRL [LPCAT3_Y348_W344C], the enrichment score was inactive: 0.676.

For the molecule VAMDDYLKNVV [LRRK2_Y707_M712V], the enrichment score is inactive: 1.12.

On to RRKRAYVEIEF [MAK16_Y282_Q277R_YF], for which the enrichment score is inactive: 0.291.

Consider RGLQVYHRRNA [LRP2_Y2010], for which the enrichment score is inactive: 0.245.

As to FGISGYVVDSV [MAP2K3_Y214_L215V], the enrichment score is inactive: 1.24.

For the molecule CTLNVYRQLHN [LUZP1_Y1036_S1034N], the enrichment score was inactive: 1.08.

IYRASYYRRGD [LTK_Y676]: the enrichment score is inactive: 0.244.

For FYDANCDGKEY [MAPRE2_Y162_Y162C], the enrichment score was inactive: 0.879.

Regarding LAETSYVIVLE [MAGEA1_Y276_K278I], the enrichment score was inactive: 1.56.

DPLLTHRFPPK [LMNA_Y481_Y481H]: the enrichment score was inactive: 0.665.

Regarding FFDANYDGKEF [MAPRE2_Y162_YF], the enrichment score is inactive: 0.734.

Source of the values: the supplement of paper PMC10369915.
